Data set [1] addresses T1, recombinant human ECD (human PSMA) (Homo sapiens, UniProt Q04609).
T1 construct: made in house
Description: SPR (BIACORE 8K) binding of anti-PSMA antibodies to recombinant human PSMA ECD. Conditions: antibody captured on anti-Fc C1 chip, PSMA antigen titrated, 1:1 Langmuir model. Here is the method:
The binding affinity of purified anti-PSMA antibodies to the recombinant human ECD was determined by surface plasmon resonance (SPR) using a BIACORE 8K instrument. The antibodies were captured on a goat anti-Fc antibody-modified C1 chip and titrated with 3-fold serial dilutions of PSMA antigen spanning concentrations of 1 nM to 11.1 nM. The association and dissociation were monitored for 3 and 15 minutes, respectively, using a flow rate of 50 μL/min. Raw binding data was referenced by subtracting the analyte binding signals from blanks and analyzed using a 1:1 Langmuir binding model using the Biacore Insight evaluation software to obtain the kinetics which were used to calculate the binding affinity.
For orientation: SPR reads the build-up and loss of mass on a sensor chip optically.

Data set [2] in a line: Thermal stability by nanoDSF (Tm, Tagg). Conditions: 20° C. to 95° C. at 1.0° C./minute. It counts as physicochemical. Here is the method:
The thermal stability (conformational stability) of the anti-PSMA antibodies was determined by nanoDSF method using a Prometheus instrument. Measurements were made by loading sample into 24 well capillary from a 384 well sample plate. Duplicate runs were performed. The thermal scans span from 20° C. to 95° C. at a rate of 1.0° C./minute. The data was processed to obtain integrated data and first derivation analysis for 330 nm, 350 nm, Ratio 330/350, and scatter data from which thermal transitions, onset of unfolding, Tm and Tagg were obtained.
“Tm” or “mid-point temperature” is the temperature midpoint of a thermal unfolding curve. It refers to the temperature where 50% of the amino acid sequence is in its native conformation and the other 50% is denatured. A thermal unfolding curve is typically plotted as a function of temperature. Tm is used to measure protein stability. […] The Tm can be readily determined using methods well known to those skilled in the art such as Circular Dichroism Spectroscopy, Differential Scanning Calorimetry, Differential Scanning Fluorimetry (both intrinsic and extrinsic dye based), UV spectroscopy, FT-IR and Isothermal Calorimetry (ITC).
“Tagg” refers to the temperature at which the protein starts to aggregate either through dimerization or oligomerization. The aggregation temperature detects the onset of aggregation, the temperature at which a protein will show a tendency to aggregate. Tagg can be determined by differential scanning calorimetry (DSC), Differential Scanning Fluorimetry (DSF) or by circular dichroism (CD). These techniques can detect small changes in the conformation of the protein and therefore detect the starting point of aggregation. Tagg values can be lower or higher than Tm. In cases where Tagg is lower than Tm, the protein either dimerizes and/or oligomerizes first and then starts unfolding later at higher temperatures than the Tagg. In cases where Tagg is higher than Tm, the protein starts to unfold first and then aggregates at a higher temperature than the Tm. Both events are commonly observed and depend on amino acid composition and protein conformation.
Thermal unfolding parameters, Tm or midpoint temperature of thermal unfolding and Tagg or aggregation temperature of selected anti-PSMA antibodies are shown in Table 23.
Background: DSF heats the sample and reads unfolding from a dye or from intrinsic fluorescence.

Data set [3] in a line: SE HPLC of purified antibodies (% monomer post protein A). It counts as physicochemical. The conditions noted are these: post protein A purification. Here is the method:
SE HPLC of the purified antibodies was performed by running samples on a TOSOH TSKgel BioAssist G3SWxl column, in 0.2 M Na Phosphate pH 6.8 at 1 mL/min on a Waters Alliance HPLC for 20 min. The column effluent was monitored by absorbance at 280 nm. For a molecule to be considered a therapeutic lead, it is critical that it can be produced in substantial amounts with high purity and high yield. Typically, purification losses are higher, and yields are lower with aggregation-prone proteins. The initial monomer percentage is generally considered a good surrogate indicator of the manufacturability of a protein.

Data set [4] concerns C4-2b cells, a cell line with high PSMA expression. The experiment in a line: Cytotoxicity of MMAF-conjugated anti-PSMA antibodies on C4-2B cells (Cell Titer Glo, 72h). It counts as cell-based, human. The conditions noted are these: MMAF-conjugated antibody, DAR ~4.0, 72h, read-out: Cytotox (IC50) C4-2B, DAR ~4.0. Here is the method: mAbs were conjugated to a monomethyl auristatin F (MMAF) payload in a 96-well format to enable screening for optimal ADC candidates. 220 ug of each mAb (1 mg/mL in dPBS) was mixed with TCEP to a final concentration of 3 mM and incubated at 37° C. for 1r. Reduced mAbs were captured on protein A resin (Protein A HP Multitrap, GE) and washed 3× with 100 mM potassium phosphate containing 2 mM EDTA at pH 7.5 to remove TCEP.
A mixture of maleimide-PEG4-vcPAB-MMAF and N-ethyl maleimide (60:40 molar ratio, 100 uM total in 100 mM potassium phosphate containing 2 mM EDTA at pH 7.5) was prepared and the resin with bound mAb was resuspended in 300 uL of the maleimide mixture. Samples were rotated for 1 hr at RT followed by quenching with N—Ac-L-Cys (2.6 mM final). […] ADC concentrations and DAR (panel average of 4.0±0.5) of the eluted ADCs were determined by UV-Vis spectrophotometry at 248 and 280 nm based on previous reports (Hamblett, et. al., (2004) Clinical Cancer Research, 10, 7063-7070; Cruz and Kayser (2009) Cancers 11(6), 870)
C4-2b cells, a cell line with high PSMA expression, were cultured in RPMI1640 containing GlutaMAX, 25 mM HEPES and 10% fetal bovine serum (FBS) and then plated in white 96 well plates at 3000 cells per well (60 uL/well). […] Following 72h of treatment, cell viability was assessed by Cell Titer Glo (Promega), according to manufacturer's instructions. […]
Background: Cellular ATP, detected with luciferase, serves as a proxy for viable cell number.

The values that follow come from patent US20230122503A1, “ANTI-PSMA RADIOCONJUGATES AND USES THEREOF” (Janssen Biotech, Inc., priority 2021, published 2023).

As a reminder, the IC50 is the concentration that gives 50% inhibition.

T1 sequence (Q04609 with tags, fused parts or gaps): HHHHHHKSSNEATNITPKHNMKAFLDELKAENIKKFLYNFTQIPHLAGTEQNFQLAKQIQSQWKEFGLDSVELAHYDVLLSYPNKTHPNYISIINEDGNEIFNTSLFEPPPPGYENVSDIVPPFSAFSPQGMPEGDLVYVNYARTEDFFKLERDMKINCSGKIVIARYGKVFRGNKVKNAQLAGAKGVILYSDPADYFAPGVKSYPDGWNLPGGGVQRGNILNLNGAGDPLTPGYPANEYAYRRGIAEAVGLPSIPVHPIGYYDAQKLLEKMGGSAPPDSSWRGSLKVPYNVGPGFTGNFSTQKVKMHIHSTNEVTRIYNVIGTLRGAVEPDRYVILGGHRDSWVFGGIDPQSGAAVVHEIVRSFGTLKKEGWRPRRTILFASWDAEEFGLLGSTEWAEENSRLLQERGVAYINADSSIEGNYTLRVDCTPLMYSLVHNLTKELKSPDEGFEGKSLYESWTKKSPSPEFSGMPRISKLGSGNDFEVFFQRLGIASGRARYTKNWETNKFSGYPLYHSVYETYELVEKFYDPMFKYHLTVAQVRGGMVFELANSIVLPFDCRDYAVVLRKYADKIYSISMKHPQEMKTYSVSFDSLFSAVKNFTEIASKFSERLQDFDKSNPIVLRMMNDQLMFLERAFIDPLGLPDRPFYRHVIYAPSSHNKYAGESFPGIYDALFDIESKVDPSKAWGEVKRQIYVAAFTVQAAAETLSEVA

B1: PSMB1195 (antibody)
heavy: EVQLVESGGGLVKPGGSLRLSCAASGFTFSSYSLNWVRQAPGKGLEWVSSISSSSSYISYADAVKGRFTISRDNAKNSLYLQMNSLRAEDTAVYYCARDRGFLEDYYYYYGMDVWGQGTTVTVSS[human IgG1 constant region not given here]
light: DIVMTQSPSSVSASVGDRVTITCRASQGISNWLAWYQQKPGKAPKLLIYVASSLQSGVPSRFSGSGSGTDFSLTISSLQPEDFATYYCQQAYSFPLTFGGGTKVEIKRTVAAPSVFIFPPSDEQLKSGTASVVCLLNNFYPREAKVQWKVDNALQSGNSQESVTEQDSKDSTYSLSSTLTLSKADYEKHKVYACEVTHQGLSSPVTKSFNRGEC
For the molecule B1, in data set [1], the Koff worked out at 0.000101 s⁻¹ and the Kon amounted to 10700 M⁻¹ s⁻¹. Moreover, in data set [2], the “Fab Tm” value came out at 80.0 °C and the Tagg worked out at 79.6 °C. In addition, in data set [3], the “SEC (% monomer post protein A)” value was 97.4%. In addition, in data set [4], the IC50 was 166 pM.

B2: PSMB1113 (antibody)
heavy: EVQLVESGGGLVKPGGSLRLSCAASGFTLSIYSMNWVRQAPGKGLEWVSSISSSSSYIFYADSVKGRFTISRDNAKNSLFLQMNSLRAEDTAVYYCARSSYGADYWGQGTLVTVSS[human IgG1 constant region not given here]
light: EIVMTQSPSSLSASVGDRVTITCRASQDITNFLAWYQQKPGKVPKLLIYTASTLQSGVPSRFSGSGSGTDFTLTISSLQPEDVATYYCQKYNSAPLTFGGGTKLEIKRTVAAPSVFIFPPSDEQLKSGTASVVCLLNNFYPREAKVQWKVDNALQSGNSQESVTEQDSKDSTYSLSSTLTLSKADYEKHKVYACEVTHQGLSSPVTKSFNRGEC
For the molecule B2, in data set [1], the Koff stood at 6.65e-05 s⁻¹ and the Kon was found to be 57300 M⁻¹ s⁻¹. Also, in data set [2], the “Fab Tm” value is 72.0 °C and the Tagg was determined as 73.2 °C. For the same molecule, in data set [3], the “SEC (% monomer post protein A)” value came to 96.7%. Further, in data set [4], the IC50 came out at 75.5 pM.
